Assay results reported in the supplement of paper PMC9151546.
Repeats are few or missing, and single values can be far off.

What was measured:
[1] = tested on: CHO-K1; experiment: hypodiploid nuclei frequency (% of nucleated events); higher = more hypodiploid events (aneugenic)
Protocol: (§1)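 Flow-cytometric in vitro micronucleus assay (Litron MicroFlow) in CHO-K1 cells in 96-well plates, 19 concentrations (4.5-200 µM, n=1 per concentration). Without S9, cells were exposed for 24 h and sampled at 48 h. With Aroclor 1254-induced rat liver S9, cells were exposed for 3-4 h and sampled at 27-28 h. Read-outs are %MN and %hypodiploid nuclei relative to nucleated events, and relative survival as the nuclei-to-bead ratio versus the 1% DMSO vehicle control (x100).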

[2] = tested on: CHO-K1; experiment: micronucleus frequency (% of nucleated events); higher = more micronuclei (genotoxic)
[3] = tested on: CHO-K1; experiment: relative survival (nuclei to bead ratio vs DMSO control) (% of vehicle control); higher = more surviving cells
Protocol: as §1
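For hypodiploid nuclei frequency (% of nucleated events) in this document: hypodiploid nuclei gated on a flow cytometer with 488 nm excitation after SYTOX Green staining, cultures at 37 °C, positive controls vinblastine without S9 and cyclophosphamide with S9.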
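For micronucleus frequency (% of nucleated events) in this document: cells lysed with nuclei stained by SYTOX Green, then micronucleus-gated events counted against nucleated events by flow cytometry with 488 nm excitation.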
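For relative survival (nuclei to bead ratio vs DMSO control) in this document: Lysed-cell nuclei stained with SYTOX Green and counted against counting beads by flow cytometry at 488 nm excitation, with vinblastine (no S9) and cyclophosphamide (plus S9) as positive controls.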

COP(=O)(OC)OC=C(Cl)Cl [Dichlorvos]
Details | hypodiploid nuclei frequency, [1] [%] | micronucleus frequency, [2] [%] | relative survival, [3]
concentration: 2.25 (µM), S9 metabolic activation: with S9, exposure time: 3-4 hours | 0.28 | 1.6 | 106
concentration: 2.25 (µM), S9 metabolic activation: without S9, exposure time: 24 hours | 0.82 | 1.3 | 106
concentration: 2.81 (µM), S9 metabolic activation: with S9, exposure time: 3-4 hours | 0.2 | 1.6 | 122
concentration: 2.81 (µM), S9 metabolic activation: without S9, exposure time: 24 hours | 0.78 | 1.52 | 90.3
concentration: 3.52 (µM), S9 metabolic activation: with S9, exposure time: 3-4 hours | 0.18 | 1.26 | 113
concentration: 3.52 (µM), S9 metabolic activation: without S9, exposure time: 24 hours | 0.64 | 1.2 | 105
concentration: 4.4 (µM), S9 metabolic activation: with S9, exposure time: 3-4 hours | 0.32 | 1.84 | 109
concentration: 4.4 (µM), S9 metabolic activation: without S9, exposure time: 24 hours | 0.52 | 1.22 | 120
concentration: 5.5 (µM), S9 metabolic activation: with S9, exposure time: 3-4 hours | 0.34 | 0.94 | 121
concentration: 5.5 (µM), S9 metabolic activation: without S9, exposure time: 24 hours | 0.78 | 1.72 | 118
concentration: 6.9 (µM), S9 metabolic activation: with S9, exposure time: 3-4 hours | 0.34 | 2.58 | 104
concentration: 6.9 (µM), S9 metabolic activation: without S9, exposure time: 24 hours | 0.58 | 1.08 | 122
concentration: 8.6 (µM), S9 metabolic activation: with S9, exposure time: 3-4 hours | 0.2 | 0.96 | 121
concentration: 8.6 (µM), S9 metabolic activation: without S9, exposure time: 24 hours | 0.44 | 1.38 | 154
concentration: 10.7 (µM), S9 metabolic activation: with S9, exposure time: 3-4 hours | 0.4 | 1.64 | 130
concentration: 10.7 (µM), S9 metabolic activation: without S9, exposure time: 24 hours | 0.56 | 1.56 | 112
concentration: 13.4 (µM), S9 metabolic activation: with S9, exposure time: 3-4 hours | 0.28 | 1.2 | 103
concentration: 13.4 (µM), S9 metabolic activation: without S9, exposure time: 24 hours | 0.62 | 1.5 | 80.9
concentration: 16.8 (µM), S9 metabolic activation: with S9, exposure time: 3-4 hours | 0.28 | 1.28 | 93.6
concentration: 16.8 (µM), S9 metabolic activation: without S9, exposure time: 24 hours | 0.66 | 1.28 | 81.3
concentration: 21 (µM), S9 metabolic activation: with S9, exposure time: 3-4 hours | 0.18 | 0.9 | 73.9
concentration: 21 (µM), S9 metabolic activation: without S9, exposure time: 24 hours | 0.54 | 1.4 | 95.7
concentration: 26.2 (µM), S9 metabolic activation: with S9, exposure time: 3-4 hours | 0.22 | 1.16 | 115
concentration: 26.2 (µM), S9 metabolic activation: without S9, exposure time: 24 hours | 0.88 | 1.76 | 88.3
concentration: 32.8 (µM), S9 metabolic activation: with S9, exposure time: 3-4 hours | 0.24 | 1.12 | 93.3
concentration: 32.8 (µM), S9 metabolic activation: without S9, exposure time: 24 hours | 0.7 | 1.54 | 80
concentration: 41 (µM), S9 metabolic activation: with S9, exposure time: 3-4 hours | 0.26 | 0.84 | 122
concentration: 41 (µM), S9 metabolic activation: without S9, exposure time: 24 hours | 0.84 | 1.3 | 112
concentration: 51 (µM), S9 metabolic activation: with S9, exposure time: 3-4 hours | 0.32 | 1.24 | 79.3
concentration: 51 (µM), S9 metabolic activation: without S9, exposure time: 24 hours | 0.8 | 1.54 | 115
concentration: 64 (µM), S9 metabolic activation: with S9, exposure time: 3-4 hours | 0.12 | 0.76 | 80.5
concentration: 64 (µM), S9 metabolic activation: without S9, exposure time: 24 hours | 0.88 | 2.06 | 129
concentration: 80 (µM), S9 metabolic activation: with S9, exposure time: 3-4 hours | 0.18 | 1.12 | 73.9
concentration: 80 (µM), S9 metabolic activation: without S9, exposure time: 24 hours | 0.9 | 1.96 | 106
concentration: 100 (µM), S9 metabolic activation: with S9, exposure time: 3-4 hours | 0.14 | 1.41 | 64.8
concentration: 100 (µM), S9 metabolic activation: without S9, exposure time: 24 hours | 1.04 | 1.58 | 109

CC(C)(OOC(C)(C)c1ccccc1)c1ccccc1 [Dicumyl peroxide]
Details | hypodiploid nuclei frequency, [1] [%] | micronucleus frequency, [2] [%] | relative survival, [3]
concentration: 4.5 (µM), S9 metabolic activation: with S9, exposure time: 3-4 hours | 0.2 | 1.06 | 101
concentration: 4.5 (µM), S9 metabolic activation: without S9, exposure time: 24 hours | 0.8 | 2.18 | 109
concentration: 5.63 (µM), S9 metabolic activation: with S9, exposure time: 3-4 hours | 0.32 | 1.34 | 87.7
concentration: 5.63 (µM), S9 metabolic activation: without S9, exposure time: 24 hours | 0.72 | 1.66 | 83.7
concentration: 7.04 (µM), S9 metabolic activation: with S9, exposure time: 3-4 hours | 0.32 | 1.12 | 99.9
concentration: 7.04 (µM), S9 metabolic activation: without S9, exposure time: 24 hours | 1.04 | 2.34 | 89
concentration: 8.8 (µM), S9 metabolic activation: with S9, exposure time: 3-4 hours | 0.38 | 1.2 | 104
concentration: 8.8 (µM), S9 metabolic activation: without S9, exposure time: 24 hours | 0.78 | 1.66 | 91.1
concentration: 11 (µM), S9 metabolic activation: with S9, exposure time: 3-4 hours | 0.34 | 1.3 | 87.3
concentration: 11 (µM), S9 metabolic activation: without S9, exposure time: 24 hours | 0.68 | 2.2 | 87.8
concentration: 13.7 (µM), S9 metabolic activation: with S9, exposure time: 3-4 hours | 0.18 | 1 | 90.5
concentration: 13.7 (µM), S9 metabolic activation: without S9, exposure time: 24 hours | 0.98 | 1.56 | 91.1
concentration: 17.2 (µM), S9 metabolic activation: with S9, exposure time: 3-4 hours | 0.46 | 1.54 | 106
concentration: 17.2 (µM), S9 metabolic activation: without S9, exposure time: 24 hours | 1 | 1.34 | 88.2
concentration: 21.5 (µM), S9 metabolic activation: with S9, exposure time: 3-4 hours | 0.26 | 1.06 | 96
concentration: 21.5 (µM), S9 metabolic activation: without S9, exposure time: 24 hours | 1.08 | 1.78 | 108
concentration: 26.8 (µM), S9 metabolic activation: with S9, exposure time: 3-4 hours | 0.3 | 1.22 | 99.1
concentration: 26.8 (µM), S9 metabolic activation: without S9, exposure time: 24 hours | 0.64 | 1.58 | 89.8
concentration: 33.6 (µM), S9 metabolic activation: with S9, exposure time: 3-4 hours | 0.28 | 0.86 | 98
concentration: 33.6 (µM), S9 metabolic activation: without S9, exposure time: 24 hours | 0.62 | 2.06 | 105
concentration: 41.9 (µM), S9 metabolic activation: with S9, exposure time: 3-4 hours | 0.14 | 0.96 | 92.3
concentration: 41.9 (µM), S9 metabolic activation: without S9, exposure time: 24 hours | 0.66 | 2.04 | 103
concentration: 52.4 (µM), S9 metabolic activation: with S9, exposure time: 3-4 hours | 0.28 | 0.9 | 94.5
concentration: 52.4 (µM), S9 metabolic activation: without S9, exposure time: 24 hours | 0.66 | 2.54 | 86.7
concentration: 65.5 (µM), S9 metabolic activation: with S9, exposure time: 3-4 hours | 0.32 | 1.3 | 97.2
concentration: 65.5 (µM), S9 metabolic activation: without S9, exposure time: 24 hours | 0.94 | 2.12 | 84.8
concentration: 81.9 (µM), S9 metabolic activation: with S9, exposure time: 3-4 hours | 0.32 | 1.5 | 98
concentration: 81.9 (µM), S9 metabolic activation: without S9, exposure time: 24 hours | 1.02 | 2.04 | 105
concentration: 102 (µM), S9 metabolic activation: with S9, exposure time: 3-4 hours | 0.18 | 1.64 | 91.4
concentration: 102 (µM), S9 metabolic activation: without S9, exposure time: 24 hours | 1.26 | 2.42 | 111
concentration: 128 (µM), S9 metabolic activation: with S9, exposure time: 3-4 hours | 0.38 | 2.28 | 98.8
concentration: 128 (µM), S9 metabolic activation: without S9, exposure time: 24 hours | 1.52 | 2.36 | 69.2
concentration: 160 (µM), S9 metabolic activation: with S9, exposure time: 3-4 hours | 0.92 | 4.12 | 70.5
concentration: 160 (µM), S9 metabolic activation: without S9, exposure time: 24 hours | 1.04 | 2.36 | 59
concentration: 200 (µM), S9 metabolic activation: with S9, exposure time: 3-4 hours | 1.4 | 5.26 | 49.5
concentration: 200 (µM), S9 metabolic activation: without S9, exposure time: 24 hours | – | – | 34.9
